Molecules are shown by their SMILES. In all, about 360,000 compounds went through this assay and about 7,500 (2.1%) were called active. Another 20% or so got no clear call; they are omitted. The call rests on the fitted dose curve; in most records, active means well fitted inhibition curve with a large enough effect; inconclusive means small, poorly fitted or top-dose-only effect, or effect the other way; inactive means flat fitted curve, though single readings scatter. The list shows a part of the results, in another mix than the full data. Where a structure was tested more than once in an assay, its records may differ in their call.
On the % scale 0 is the no-effect control and ±100 the full control effect; potency means the concentration at half of the fitted maximal effect.

The test is described as follows: Nrf2 qHTS screen for inhibitors. Further: nearly all actives have a fitted effect of over 60% in size. Conditions: A549 ARE-Fluc reporter, luciferase luminescence, 18-24 h; series mostly up to 46 µM; activity change, negative = inhibition: at the top concentration. The gist of the method: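 Quantitative HTS in A549 cells stably bearing an antioxidant response element-firefly luciferase construct. Inhibition of Nrf2-driven transcription was scored by luminescence after 18-24 h of compound exposure at 37 °C.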
For `O=C1C=C2C=C[C@H]3C[C@]2(O1)[C@@H]1CCCCN13`, the “activity change, negative = inhibition” value was inactive: -29.2%.

On to `c1cc2c(cc1[C@H]1OC[C@H]3[C@@H]1CO[C@@H]3c1ccc3c(c1)OCO3)OCO2`, for which the “activity change, negative = inhibition” value is inactive: -20%.

`CC(C)c1ccc(N2C(=O)NC(=O)/C(=C/c3cnc(-c4ccccc4)nc3)C2=O)cc1`: the “activity change, negative = inhibition” value was inactive: 11.9%.

For the compound `O=C1/C(=C\c2ccc([N+](=O)[O-])cc2)N2CCC1CC2`, the “activity change, negative = inhibition” value was inactive: 21.7%.

As to `COc1ccc(CNC(=O)Cn2c(=O)oc3cc(S(=O)(=O)N4CCCC4)ccc32)cc1`, the “activity change, negative = inhibition” value is inactive: -23.7%.

Consider `Cc1cccc(N2CCN(C(=O)CCS(=O)(=O)c3ccc4c(c3)oc(=O)n4C)CC2)c1C`, for which the “activity change, negative = inhibition” value was inactive: -27.4%.

As to `O=C1NC(=O)N(c2ccc3c(c2)OCO3)C(=O)/C1=C\c1ccc(N2CCCCC2)o1`, the “activity change, negative = inhibition” value was inactive: -16.1%.

Turning to `C[C@H]1C=CC(=O)O[C@H]1c1ccccc1`, the “activity change, negative = inhibition” value was inactive: 4.49%.

Take `Cn1c(=O)oc2cc(S(=O)(=O)CCC(=O)N3CCN(c4ccccc4)CC3)ccc21`: the “activity change, negative = inhibition” value is inactive: -7.27%.

Consider `CC(C)C[C@H]1C(=O)N2CCCC2[C@]2(O)O[C@](NC(=O)[C@@H]3C=C4c5cccc6[nH]cc(c56)CC4N(C)C3)(C(C)C)C(=O)N12` (stereo partly drawn), for which the “activity change, negative = inhibition” value is inactive: -29.4%.

Regarding `CC(CNC(=O)CCS(=O)(=O)c1ccc2c(c1)oc(=O)n2C)c1ccccc1` (stereo not drawn), the “activity change, negative = inhibition” value was inactive: -2.44%.

Take `CC(=O)OC1C(=O)OCC23CCC4(C)OC4C2OC2CC(OC(=O)C=CC=CC(=O)OCCC1C)C3(C)C21CO1` (stereo not drawn): the Potency was active: 0.0164 µM.

In the case of `CC(C)CCNC(=O)c1c(N)n(Cc2ccc3c(c2)OCO3)c2nc3ccccc3nc12`, the Potency was active: 20.6 µM.

Consider `COC(=O)C1=C(c2ccccc2OCc2ccccc2)C[C@@H]2CC[C@H]1N2C(=O)NCc1ccc(F)cc1`, for which the Potency is active: 23.1 µM.

Consider `Cc1ccc(/C=C2\C(=O)NC(=O)N(CCc3ccc(F)cc3)C2=O)s1`, for which the “activity change, negative = inhibition” value was inactive: 23.3%.

Consider `O=C(NN1C(=O)C2C3C=CC([C@H]4CC34)[C@@H]2C1=O)c1ccc(Br)cc1` (stereo partly drawn), for which the “activity change, negative = inhibition” value is inactive: -12.9%.

As to `COC(=O)[C@H](Cc1ccccc1)N(Cc1ccccc1)S(=O)(=O)N(Cc1ccccc1)[C@@H](Cc1ccccc1)C(=O)OC`, the “activity change, negative = inhibition” value is inactive: -28.5%.

As to `COc1ccc(-n2c(/C=C3\C(=O)Nc4ccccc43)nc3ccccc3c2=O)cc1`, the “activity change, negative = inhibition” value was inactive: -27.5%.

For the compound `CC(=O)O[C@@]12CO[C@@H]1C[C@@H](O)[C@@]1(C)C(=O)[C@H](O)C3=C(C)[C@@H](OC(=O)[C@H](O)[C@@H](NC(=O)c4ccccc4)c4ccccc4)C[C@@](O)([C@@H](OC(=O)c4ccccc4)C12)C3(C)C` (stereo partly drawn), the “activity change, negative = inhibition” value was inactive: -7.36%.

For the compound `Cc1cc(/C=C2/C(=O)NC(=O)N(c3ccc(Br)cc3)C2=O)c(C)n1C`, the “activity change, negative = inhibition” value is inactive: 1.82%.

Take `COc1ccc(CCCc2nnc(SCC(=O)Nc3ccc(C)c(C)c3)o2)cc1`: the “activity change, negative = inhibition” value was inactive: -23.1%.

Regarding `CN1/C(=C\C=Nc2ccccc2)C(C)(C)c2ccccc21`, the “activity change, negative = inhibition” value is inactive: -29%.

Regarding `COc1ccccc1CN1CCN(C(=O)COc2cccc(C)c2)CC1`, the “activity change, negative = inhibition” value is inactive: 12.7%.

`C[C@@H]1CN([C@@H](C)CO)C(=O)c2cccc(NC(=O)c3ccncc3)c2O[C@@H]1CN(C)Cc1ccc(-c2ccccc2)cc1`: the “activity change, negative = inhibition” value is inactive: -7.05%.

On to `COc1ccc(-c2cc(=NCCCCCC(=O)O)c3cc(C)ccc3o2)cc1`, for which the “activity change, negative = inhibition” value is inactive: -1.77%.

With `Cn1c(O)c(C(=Nc2ccccc2)SCc2ccc(Cl)cc2)c(=O)n(C)c1=O`, the Potency is active: 23.1 µM.

`CCCc1cc(N2CCN(c3ccc(OC)cc3)CC2)n2cnnc2n1`: the Potency was active: 11.6 µM.

On to `Cc1cccc(N2C(=O)NC(=O)/C(=C/c3ccc(N4CCOCC4)cc3)C2=O)c1`, for which the “activity change, negative = inhibition” value was inactive: 1.12%.

In the case of `O=C1/C(=C/c2ccc3c(c2)OCO3)N2CCC1CC2`, the “activity change, negative = inhibition” value was inactive: 10%.

For the compound `COc1cccc(N2CCN(c3c4c(nc5nncn35)CCC4)CC2)c1`, the Potency is active: 16.4 µM.

For `CCC1C2CC3C4N(C)c5ccccc5C45CC(C2C5O)N3[C@@H]1O` (stereo partly drawn), the “activity change, negative = inhibition” value is inactive: 0.12%.

`O=C1N[C@@H](Cc2ccccc2)C(=O)N2[C@H]1C[C@H]1c3ccccc3N(OOSc3ccccc3)[C@H]12`: the “activity change, negative = inhibition” value was inactive: -8.52%.

Regarding `CN(C)[C@@H]1C(=O)C(C(N)=O)=C(O)[C@@]2(O)C(=O)C3=C(O)c4c(O)cccc4[C@@](C)(O)[C@H]3[C@H](O)[C@@H]12`, the Potency result is “inactive”.

With `CCN(CC)P(=O)(NC(=O)C(Cl)(Cl)Cl)N(CC)CC.[Cl-].[Cl-].[Cl-].[Nd+3]`, the “activity change, negative = inhibition” value is inactive: -6.08%.

In the case of `[Cl][Pt+2][Cl].[NH-]C1CCCCC1[NH-]` (stereo not drawn), the “activity change, negative = inhibition” value is inactive: -0.0262%.

For the compound `O=C1NC(=O)N(Cc2ccccc2)C(=O)/C1=C\C=C\c1ccco1`, the Potency was active: 25.9 µM.

Consider `CN(C)[C@@H]1C(=O)C(C(N)=O)=C(O)[C@@]2(O)C(=O)C3=C(O)c4c(O)cccc4[C@@](C)(O)C3[C@H](O)C12` (stereo partly drawn), for which the “activity change, negative = inhibition” value was inactive: -1.79%.

Take `COC(=O)[C@@]12CCCCN1[C@H](c1ccc(-c3ccc(Cl)c(Cl)c3)c(OC)c1)[C@H]1C(=O)N(C)C(=O)[C@H]12`: the “activity change, negative = inhibition” value was inactive: -0.86%.

For `COC(COC(N)=O)C1=C(N2CC2)C(=O)C(C)=C(N2CC2)C1=O` (stereo not drawn), the Potency is active: 2.06 µM.

In the case of `COc1cccc2c1cc([N+](=O)[O-])c1c(C(=O)O)cc3c(c12)OCO3`, the Potency was active: 11.6 µM.

`Cc1ccc(C)c(N2CCN(C(=O)CCS(=O)(=O)c3ccc4c(c3)oc(=O)n4C)CC2)c1`: the “activity change, negative = inhibition” value was inactive: -29.8%.

As to `C[C@]12CCC(=O)C=C1CC[C@@H]1C2[C@H](O)C[C@]2(C)C(=O)CCC12` (stereo partly drawn), the “activity change, negative = inhibition” value is inactive: -18.6%.

Turning to `COc1ccc(CCNC(=O)c2ccc3c(c2)N=C(C)c2cc(C)ccc2S3)cc1OC`, the Potency was active: 14.6 µM.

On to `C=CC1CN2CCC1CC2C(O)c1ccnc2ccccc12` (stereo not drawn), for which the “activity change, negative = inhibition” value is inactive: 0.502%.

`O=C(C1CCCN(S(=O)(=O)c2cccc3nsnc23)C1)N1CCN(c2cccc(Cl)c2)CC1` (stereo not drawn): the Potency is active: 20.6 µM.

`C[C@]12CCC(=O)C=C1CC[C@@H]1[C@@H]2CC[C@@]2(C)[C@H]1CC[C@]2(C)O`: the “activity change, negative = inhibition” value is inactive: -20.2%.

On to `N#CC(=C(O)c1ccc(S(=O)(=O)N(CCCl)CCCl)cc1)c1nc2ccccc2[nH]1`, for which the “activity change, negative = inhibition” value was inactive: -5.27%.

Take `Cc1c(C(c2ccc(Cl)cc2Cl)c2c(O)c3ccccc3oc2=O)c(=O)n(-c2ccccc2)n1C` (stereo not drawn): the activity change, negative = inhibition was inactive: -6.84% [at 9.27 µM].
